From the supplement of paper PMC10126150
Values marked as one replicate rest on one cluster of the flow cell; about a third of the high ones do not repeat.

Each sequence was assayed on ATP (assay: switch fluorescence ratio, 500 uM ATP over buffer (Cy3 cluster intensity, sum of 5 cycles each) (fold (ratio)); higher = stronger signal-on switching upon ATP binding; sequences stand for … in TCGTCGGCAGCGTCAGATGTGTATAAGAGACAGTTTTTTTTTTTTTTTTTTTTTTTTT…TC). Settings: aptamer strand: ATP DNA aptamer (quencher-CACCTGGGGGAGTATTGCGGAGGAAGG + anchor), 100 nM annealed; ATP concentration: 500 uM; one replicate.
Outline: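 Values give the fluorescence ratio for each switch-domain sequence, averaged from per-cluster ratios of summed target-cycle to summed buffer-cycle Cy3 intensity. The Cy3-labelled switching-strand clusters sat on a modified Illumina MiSeq flow-cell, were annealed to 100 nM quencher-labelled ATP aptamer, and were imaged in selection buffer, then after 15 min with 500 uM ATP at 22 °C. Five cycles ran with NaOH stripping and re-annealing between them, and clusters outside 100-1000 RFU were excluded.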
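Note: ATP exposure 15 min at 22 °C before imaging.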

Row | Sequence | switch fluorescence ratio
1 | TTGTGCCGTC | 0.909
2 | GTATGAGTGT | 0.969
3 | AACCTGAAAC | 1.3
4 | AGGACGTAGG | 1.01
5 | GCAGTAATGG | 1.51
6 | TCAAGATAGT | 1.01
7 | CGGATACTGG | 0.959
8 | GTCACTACAA | 0.973
9 | AGTGTGTCCC | 0.93
10 | TAAAAGTGG | 1.01
11 | TGAGTAGTCG | 0.956
12 | TAAAGCAGCG | 0.987
13 | CGGATGGTCT | 0.978
14 | GGCCGTCTGC | 0.984
15 | GCCCGGGGCA | 1.02
16 | TGAGAATGGT | 0.932
17 | ACTCAAAGTC | 1.12
18 | ACGCATGTAC | 4.08
19 | CGGTTAAAGT | 1.01
20 | CCCCTATGTT | 1.03
21 | ATTTGCGCTG | 0.987
22 | AGGGGTCTGG | 0.999
23 | TGTTATGGCG | 1.04

Row | Sequence | switch fluorescence ratio
24 | GTATTTACGA | 0.993
25 | CGATAGCGAC | 1.54
26 | TACTATTGCC | 1.02
27 | GTGACTAGT | 0.983
28 | AAATGGGAGT | 1.01
29 | GACAACCGGG | 1.15
30 | ATAACTTCAA | 1.02
31 | CAGATTGTGG | 0.965
32 | CCCCGATCGT | 1.01
33 | TTGATCACCT | 1.16
34 | ACGCCCAACC | 1.44
35 | CCATGCATAC | 3.09
36 | ATTCGGGACG | 0.977
37 | GGATAGT | 0.985
38 | TTTTGCATCA | 0.981
39 | ACTCATGAAC | 1.09
40 | AGGCAGGTAT | 1
41 | GAGGCAGATC | 1.29
42 | GCGTGCTAGT | 0.993
43 | GAATTTAGC | 1.02
44 | TGCAGCCCGT | 1.02
45 | AGGTTTAACT | 0.988
46 | TTCGTTGGAT | 1.05

Row | Sequence | switch fluorescence ratio
47 | ACATATACAT | 1.14
48 | CGAGTACATT | 1.03
49 | CCTATAGTTT | 0.977
50 | CTACGTTGGC | 1.59
51 | TGAGTCAGCG | 1.06
52 | AAACCCATGT | 1.03
53 | GAATCAACCG | 1.03
54 | TATGAGATAA | 1.05
55 | ACACAGCTGC | 1.26
56 | GTAACAGTGC | 1.06
57 | GGGCGTTGTA | 1.02
58 | CTGCTAAATT | 1.04
59 | CGGCTATCGC | 1.04
60 | GCTGACAAAA | 1.01
61 | ATCCTGATGG | 0.994
62 | TGGTTCCGAC | 1.2
63 | GCATTGGCGC | 0.985
64 | TATTGGAAAA | 0.934
65 | GCAGGTGCCC | 1.29
66 | AATCTTTGCG | 1.04
67 | CGGAGGATGA | 1.03
68 | GGCATTCCTT | 1.01
69 | GACTGGGCTT | 0.99

Row | Sequence | switch fluorescence ratio
70 | GGTGAAGTTC | 1.04
71 | CTCGGCGGCG | 1
72 | CGTTATTATC | 1.13
73 | TTTCATGAGT | 0.978
74 | CTAAGTAAAC | 1.08
75 | TAAACTCACG | 1.38
76 | AGTGACCCAG | 1
77 | TTTGCGTACT | 1.02
78 | GGTGGCGGTA | 0.999
79 | CCATGTTGAC | 0.977
80 | TACATCCAAT | 1.02
81 | TTGGACTGCT | 1.01
82 | TCCTGTCATT | 1.01
83 | CCGGGTCATA | 1.1
84 | TCGGTGTAAT | 0.982
85 | CTATGGATCG | 0.975
86 | TTGTCTGAGG | 0.96
87 | CGGGATTGA | 1.01
88 | GAGAAAGTTA | 0.992
89 | CATCCGA | 1.38
90 | TTCAAATAT | 1
91 | GTGGTATTGG | 0.996
92 | GGCGACTGGA | 1.02

Row | Sequence | switch fluorescence ratio
93 | CCCCTACATC | 1.09
94 | CACAGGGTTC | 1.08
95 | CACAGTTTCC | 1.11
96 | GGATGTAACG | 1.03
97 | AACGGGCTGT | 0.977
98 | AATAATGGGC | 0.963
99 | AGGATGTCTT | 0.984
100 | TAACTTACGG | 1.46
101 | GGAAGACGCT | 0.986
102 | AATCAGACA | 1.05
103 | ACGTTACAGC | 1.48
104 | TACCGTCTCG | 1
105 | AGAGTTGCGC | 1.05
106 | GCTATCCCGT | 0.962
107 | TGTTCTTTCA | 0.963
108 | AAAGCACGAT | 1.07
109 | GTTTCGAAAC | 1.04
110 | GGTTCCGTTA | 0.977
111 | GCACCAGGCG | 2.3
112 | GTTACTTGTG | 1.01
113 | TTTATTTTA | 1
114 | GATAGAAGA | 1.02
115 | AAAGACCTTG | 1.01

Row | Sequence | switch fluorescence ratio
116 | AAGCCATACT | 1.97
117 | TTGCCCTCAC | 0.998
118 | CTAAATGTTA | 0.985
119 | ACAATCTTAG | 1.01
120 | ATCTGGGACG | 1.12
121 | GACGGAGTAA | 2.64
122 | TTTGAAGGT | 1.03
123 | ACAGCGATAA | 2.13
124 | GTCGGAAGGC | 1.39
125 | TAGAAGAGCG | 1.02
126 | CCTAAGCGAG | 1.9
127 | TCAATTGATC | 1.01
128 | AGCAGCACTT | 1.09
129 | TGAAGAAGGA | 1.04
130 | AAACATGGTA | 1.04
131 | TCATAGTGCT | 0.979
132 | GTTGGATTAT | 0.999
133 | AAAAGTTTCG | 0.986
134 | GTCTACAGTT | 0.929
135 | CACGGGGAAA | 1.23
136 | TCGTTGAAAG | 1
137 | TTCCATAGAC | 1.1
138 | TCGCGGCGTC | 1.09

Row | Sequence | switch fluorescence ratio
139 | CAGGCATGTG | 1.03
140 | GATAATTAGC | 0.946
141 | CCTTTCATGG | 1.03
142 | TAACAATACT | 1.13
143 | CCAGAGGTG | 1.82
144 | AGTTCAGGCG | 0.938
145 | ATTCAACTGG | 1.03
146 | GGCTGGACTG | 0.999
147 | ATCAGGTA | 1.02
148 | TCCTCACACG | 1.34
149 | CAGTTTAGG | 1
150 | ACACTGCACG | 1.35
151 | GGGGGCTTC | 1.01
152 | ATCAAACCAT | 1.08
153 | CAGGGTAGGT | 1.01
154 | TAATTCCATA | 1.02
155 | CGAAGAATAG | 1.05
156 | ATCAGGCAGG | 1.06
157 | CGCTTCATCC | 1.72
